Source: publication PMC4336329 (PLoS ONE, 2015)
Hit rate of the full screen: of about 310,000 compounds, about 14,000 (4.5%) showed an effect of 50% or more. The effect is printed as a negative number. The list shows a part of the results.

Molecular target: human ether-à-go-go-related gene (hERG) potassium channel (human, UniProt Q12809)
Experiment: primary screen, population patch clamp on CHO cells stably expressing hERG
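Also: peak tail current of the secondary pulse compared with the same well before compound.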

human ether-à-go-go-related gene (hERG) potassium channel, sequence (Q12809 whole entry, looked up): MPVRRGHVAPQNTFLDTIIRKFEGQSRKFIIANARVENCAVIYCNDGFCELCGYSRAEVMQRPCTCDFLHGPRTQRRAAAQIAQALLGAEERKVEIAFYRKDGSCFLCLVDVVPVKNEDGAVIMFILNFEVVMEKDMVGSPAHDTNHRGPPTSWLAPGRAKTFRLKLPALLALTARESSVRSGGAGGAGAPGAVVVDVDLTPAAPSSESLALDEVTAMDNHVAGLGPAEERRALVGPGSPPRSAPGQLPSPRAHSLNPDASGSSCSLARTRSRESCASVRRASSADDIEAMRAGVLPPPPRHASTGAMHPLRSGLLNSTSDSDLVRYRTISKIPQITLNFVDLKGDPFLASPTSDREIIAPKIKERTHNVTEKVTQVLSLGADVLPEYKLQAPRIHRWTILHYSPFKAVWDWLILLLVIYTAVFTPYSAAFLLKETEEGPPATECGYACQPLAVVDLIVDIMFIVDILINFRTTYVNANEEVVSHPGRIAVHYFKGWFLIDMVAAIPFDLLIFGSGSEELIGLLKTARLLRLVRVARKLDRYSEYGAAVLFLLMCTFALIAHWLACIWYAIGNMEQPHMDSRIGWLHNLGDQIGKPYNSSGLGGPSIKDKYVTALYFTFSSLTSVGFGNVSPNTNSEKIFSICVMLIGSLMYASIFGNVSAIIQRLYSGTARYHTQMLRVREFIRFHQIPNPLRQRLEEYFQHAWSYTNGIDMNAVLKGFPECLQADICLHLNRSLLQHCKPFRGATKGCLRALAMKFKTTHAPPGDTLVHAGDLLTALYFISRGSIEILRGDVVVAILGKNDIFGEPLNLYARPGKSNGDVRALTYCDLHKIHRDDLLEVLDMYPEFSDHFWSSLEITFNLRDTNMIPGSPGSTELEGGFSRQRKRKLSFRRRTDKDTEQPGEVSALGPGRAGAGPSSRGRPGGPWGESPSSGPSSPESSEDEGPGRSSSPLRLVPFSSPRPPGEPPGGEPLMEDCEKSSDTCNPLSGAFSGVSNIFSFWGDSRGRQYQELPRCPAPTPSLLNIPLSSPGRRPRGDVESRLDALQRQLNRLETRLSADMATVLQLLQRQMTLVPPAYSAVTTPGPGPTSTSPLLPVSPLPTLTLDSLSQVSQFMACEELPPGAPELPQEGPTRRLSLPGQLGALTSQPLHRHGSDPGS

Compound	hERG current change (%, negative = inhibition) at 10uM
CCOC(=O)CN(C#N)c1nc(N(C)C)nc(N(C)C)n1	2.45%
O=C(Nc1ccc(Cl)cn1)C1C(c2ccccc2)C1(Cl)Cl (stereo not shown)	15.7%
CC(=O)Nc1ccc(NC(=O)COC(=O)c2c(-c3ccccc3)noc2C)cc1	1.7%
COC(=O)c1ccc(OCC(=O)c2ccccc2OC)cc1	-12.1%
CCN1CCCC1CNCC(=O)Nc1ccc(OC(F)(F)F)cc1.O=C(O)C(=O)O (stereo not shown)	-70.7%
COc1ccccc1CO/N=C/c1cccn1-c1nccc(N(C)C)c1C#N	-17.2%
CCCCOC(=O)Nc1nnc(-c2ccccc2OC)s1	6.26%
CCC(C)C(NC=C1C(=O)OC(C)(C)OC1=O)C(=O)O (stereo not shown)	-4.97%
COc1ccc(-n2ccc3ccccc32)cc1	13%
O=S(=O)(Nc1nc(-c2ccccc2)cs1)c1cc(Cl)ccc1Cl	18.3%
CN1C(=O)CC(c2ccccc2)C1=O (stereo not shown)	3.18%
O=C(Cc1nc2ccccc2[nH]1)c1ccc(Br)cc1	-12.7%
C=CCN1C(=O)c2ccc(C(=O)N(C)CC(=O)Nc3ccccc3C(F)(F)F)cc2C1=O	2.6%
CCCCn1c(O)c(C(C)=NCc2ccc(F)cc2)c(=O)[nH]c1=O	-5.52%
Cc1cc(C)cc(NC(=S)NCc2cccnc2)c1	-15.8%
CCC(=O)N1c2ccc(S(=O)(=O)N(CCO)Cc3ccccc3)cc2CC1C (stereo not shown)	-18.5%
COC(=O)C(NC(C)=O)(Nc1ccc(C)cn1)C(F)(F)F (stereo not shown)	16.7%
CC1CCN(C(=O)c2ccc(NC(=O)C3CCCO3)cc2)CC1 (stereo not shown)	19%
O=C(NN1C(=O)C2C(c3ccccc3)C=CC(c3ccccc3)C2C1=O)c1cccc(Br)c1 (stereo not shown)	18.2%
CCOc1ccc(C(C)(N)C(=O)O)cc1 (stereo not shown)	-2.39%
Cc1ccc2ccc[n+](Cc3ccccc3)c2c1.[Br-]	-4.2%
CN1C(=O)c2cccc3c(S(=O)(=O)NCc4ccco4)ccc1c23	-36.4%

Compound	hERG current change (%, negative = inhibition) at 10uM
NC(=O)C1CCN(C(=O)C2CCC(=O)N(C3CCCCCC3)C2)CC1 (stereo not shown)	30.2%
O=C(N/N=C/c1c[nH]c2ccccc12)c1cc(-c2ccc(-c3ccccc3)cc2)n[nH]1	12.6%
COc1ccc(OCc2n[nH]c(=S)o2)cc1	20.7%
CC12CN3CCN(CC(C3)/C1=N/N=C/c1cccc([N+](=O)[O-])c1)C2	3.24%
C#CCOCCOCCOCCNc1nc(N2CCN(C(=O)CCCCCCCCCCNC(=O)[C@@H](CCC(=O)O)n3cc(CCCCCN)nn3)CC2)nc(N2CCN(C(=O)CCCCCCCCCCNC(=O)[C@H](CO)n3cc(CCCCCN)nn3)CC2)n1	-5.69%
CC(C)Oc1ccc(C(=O)Nc2ccc(N3CCCCC3)cc2)cc1	-2.32%
CC(C)c1ccc(-c2nn[nH]n2)cc1	-0.908%
Cc1cc(=O)[nH]c(SCC(=O)c2ccc(F)c(C)c2)n1	16.9%
CCCN(CCC)C(=O)NC1CC(=O)N(c2ccc(OC)cc2)C1 (stereo not shown)	-13.5%
COCCn1c(CN2CCC(Cc3ccccc3)CC2)nc2c1c(=O)n(C)c(=O)n2C	-28.2%
CCCS(=O)(=O)N1CCN(Cc2ccccc2[N+](=O)[O-])CC1.O=C(O)C(=O)O	-9.2%
COc1cccc(C(=O)Nn2cnnc2)c1	17.6%
CC1(C)Cc2c(cnn2-c2ccc(F)cc2)C(NC(=O)CCn2cncn2)C1 (stereo not shown)	-69.1%
Nc1c(C(=O)Nc2ccc3c(c2)OCCO3)nnn1Cc1cccc(F)c1	-4.88%
CN(C)S(=O)(=O)c1ccc(N2CCCC2)c(C(=O)N2CCN(S(=O)(=O)c3cccc(F)c3)CC2)c1	-10.7%
CC(C)(C)CN1CCNC(=O)C1CC(=O)NCCc1ccccc1F (stereo not shown)	4.25%
Clc1ccc(OCc2nnc3n2N=C(c2ccc4c(c2)OCCO4)CS3)c(Cl)c1	4.13%
COc1ccccc1C(=O)NNC(=O)c1ccccc1F	13%
Cn1c(Cn2c(=O)sc3ccccc32)nnc1SCc1ccc(F)cc1	-21.6%
COC(=O)CSc1nc(C)cc(Oc2ccccc2)n1	6.16%
Cc1ccc(C)c(N2CCN(S(=O)(=O)c3ccc4c(c3)CC(C)N4C(=O)C3CC3)CC2)c1 (stereo not shown)	13.8%
COc1ccc(CNC(=O)COC(=O)c2ccc(OCC3CCCO3)cc2)cc1 (stereo not shown)	-5.66%

Compound	hERG current change (%, negative = inhibition) at 10uM
Cc1cccc(-n2nc(C)cc2N)c1	14.8%
CCCN1CCC(NC(=S)Nc2ccc(OC)c(OC)c2)CC1	0.614%
NC(=O)C(NC(=O)OCc1ccccc1)c1ccccc1 (stereo not shown)	0.252%
CNC(=O)c1cc(OCC(F)(F)F)ccc1OCC(F)(F)F	-4.26%
CC(C)Cc1cc(C(=O)N2N=C(C(F)F)CC2(O)C(F)F)c2ccccc2n1 (stereo not shown)	-16%
CCn1cc(C(=O)NCc2ccccn2)c(=O)c2cc(F)c(N3CCN(C)CC3)cc21	4.37%
CCOC(=O)N/N=C\c1ccc(-c2cc(Cl)ccc2Cl)o1	4.19%
CC(C)Sc1nc2[nH]ncc2c(=O)[nH]1	14.5%
CCOC(=O)C1(C/C(C)=N/NC(N)=O)CC(C)OC1=O (stereo not shown)	-0.565%
CCc1cc2c(N[C@@H](Cc3c[nH]c4ccccc34)C(=O)O)ncnc2s1	10.8%
Cc1ccc(NC(=O)c2sc3ncn(CC(=O)N4CCN(c5ccccn5)CC4)c(=O)c3c2C)cc1F	-15.6%
CCOc1ccc(NC(=O)COC(=O)c2ncc(Cl)c(Cl)c2Cl)cc1	15.1%
CCC(c1nnnn1C(C)(C)CC)N(CCN1CCOCC1)Cc1cc2cc(C)ccc2[nH]c1=O (stereo not shown)	-29.6%
N#CCCn1cc(C(=O)Nc2ccc(C(=O)O)cc2)c(-c2cccc(Br)c2)n1	22%
COc1ccc(Cl)cc1NC(=O)COC(=O)CCc1cc(OC)c(OC)c(OC)c1	6.7%
Cc1nn(CC(=O)N(C)Cc2ccc(F)cc2)c(C)c1[N+](=O)[O-]	-10.4%
Cc1cnc(CN(C)C(=O)c2ccc3oc(Cc4ccc(Cl)cc4)nc3c2)[nH]1	-44.2%
O=C(CSc1nnnn1C1CCCC1)c1ccc2c(c1)OCCO2	16.6%
CCCCn1c(Nc2ccc(OC)cc2)nc2ccccc21	15.1%
Cc1ccc(-c2cc(C(=O)N/N=C\c3cnn(C)c3C)c3ccccc3n2)cc1C	-4.44%
O=C(CSc1nnnn1-c1ccccc1)Nc1nsc(-c2ccc(Cl)cc2)n1	-1.4%
O=C(c1ccc(S(=O)(=O)N2CCOCC2)cc1)N(c1cccc(Cl)c1)C1C=CS(=O)(=O)C1 (stereo not shown)	-8.81%

Compound	hERG current change (%, negative = inhibition) at 10uM
CCCCNC(=O)Cc1ccc(C)cc1	28.7%
O=C(Nc1cccc(Cl)c1)N(CCN1CCOCC1)Cc1ccccc1F	-49.6%
N#Cc1nc(-c2ccco2)oc1N1CCN(C(c2ccccc2)c2ccccc2)CC1	-0.82%
Cc1ccc(N(C(=O)c2snc(C(N)=O)c2N)C(C(=O)NCCC(C)C)c2ccco2)cc1 (stereo not shown)	-10.9%
CCN(CC(=O)Nc1cc(Cl)ccc1C)C(=O)c1cc([N+](=O)[O-])ccc1N1CCOCC1	-18.5%
CC(C)(C)c1cc(C(=O)NN)n(Cc2ccc(F)cc2)n1	-5.6%
COc1cccc(CNS(=O)(=O)c2ccc3c(c2)CC(C)N3C(=O)C2CC2)c1 (stereo not shown)	18.5%
CCCCNC(=S)NCCN1CCCCC1.O=C(O)C(=O)O	-21.1%
C=CCCN(C1CCCC1)S(=O)(=O)c1ccccc1Br	4.52%
Cc1ccc(CC(=O)O/N=C(\N)c2ccccn2)cc1	-5.06%
CCCN1C2CCCC1CC(NC(=O)c1ccccc1)C2 (stereo not shown)	-18.9%
Cc1cc(C)c2ccc(/C=N/O)nc2c1O	6.06%
COc1ccccc1C(=O)NC(=O)COC(=O)CNC(=O)c1ccc(Cl)cc1Cl	15.2%
COC(=O)c1ccccc1Nc1ccnc(Cl)n1	3.31%
C=CCNC(=S)Nc1ccc(C)c(S(=O)(=O)N2CCCCC2)c1	-18.2%
CC(C)c1ccc(/C=N/NC(=O)CCNC(=O)c2ccccc2)cc1	-46.9%
COc1ccc(OC)c(S(=O)(=O)Nc2cc(OC)c(Cl)cc2OC)c1	-1.68%
COc1ccc(C2C(C(=O)OCC(=O)NC(C)(C)C)CCC(=O)N2c2ccc(C)cc2)cc1OC (stereo not shown)	-3.73%
O=C(Nc1nccs1)c1ccc(N2C(=O)[C@@H]3[C@H](C2=O)[C@H]2C=C[C@@H]3C2)cc1	-0.0452%
CCCc1nnc(SCC(=O)N2CCCCC2C)n1CCOC (stereo not shown)	5.36%
Cc1cc(C)n(CC(C)NCc2c(C(=O)N3CCOCC3)nc3c(C)cccn23)n1 (stereo not shown)	16.8%
CCOc1ccc(C2CC(c3ccccc3C)n3ncnc3N2)cc1 (stereo not shown)	2.8%
